# According to the supplement of paper PMC11417369:
# Some of the results follow.
# System: PF3D7_0420300 AP2 domain 1 (GST-tagged)
# Assay: gcPBM binding intensity (ln(normalized median fluorescence intensity)); higher = stronger DNA binding
# Procedure, shortened: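 An Agilent 4 × 180k array carrying primer-extended double-stranded 36-bp intergenic genomic probes and negative controls received GST-tagged P. falciparum DNA-binding domains expressed in E. coli, about 25 μg on average, for 1 h. The binding buffer contained 1× PBS, 1% milk, 0.2 mg/ml BSA, 0.5% salmon testes DNA and 0.03% Triton X-100. Binding intensity is the top Masliner-normalised natural-log median intensity across replicate spots of either probe orientation, read after Alexa488 anti-GST antibody staining and a 488 nm scan.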
row,Sequence,gcPBM binding intensity (ln)
1,AACCATGTTAACAATGCATGCATCACTATATAAACG [TGCATGCA_site421],9.25
2,ATACATATATATAGGTGTACATATAATATATATATA [XGTACX_site2228],9.35
3,TTTAATTTTACATGAGAAACATATTACAATAAAATA [GTGCAC_negctrl_site606],8.97
4,GAAATACCGGAAAGCAAACACACATTTTAAAACCAT [CACACA_site3861],9.68
5,ATATTTTTTGGAAAGTGTACAATATTATATATTAAA [XGTACX_site2163],9.06
6,TTTTTTTTTTTTAAATGTACTTATCAACTTTTATAT [XGTACX_site4641],9.19
7,TTATTTTGTTTATTATGTACACAAAGACATAATAAT [XGTACX_site5648],9.03
8,CACTTACATAATTATTGTACAGATATTATCAAATAA [XGTACX_site567],9.05
9,ACTTATATTATAAATTGTACAAATATTATATTTGGT [XGTACX_site1424],9.29
10,AATATATGTAAATGGACACACACATATATATATATA [CACACA_site9220],9.47
11,AATAAAATAATCCAAGTGCATATGTAAAAATACATT [GTGCAC_site9576],9.36
12,TACGTAAAAATAATACGTACATATATTTATAGAAAA [XGTACX_site4959],9.02
13,ACGGACAATACGGAAACACACAAGTTATTTTATCAT [CACACA_site7310],9.49
14,AAAAAAAAAAGACACACACACACACGCATATACATA [CACACA_site7289],10.2
15,ACATAATATATATATTAACACACATCCTTTTATGTA [CACACA_site8317],9.58
16,TGACTTTGTTGAATTTGTCCTCTTAACTCATAATAT [GTGCAC_negctrl_site217],9.24
17,TTCTGTGTCTAAAAATGTACGGGAATATATAAAAGT [XGTACX_site2090],9.38
18,TAATTTCTTATGTAGTGTACAAATAATATATGATAT [XGTACX_site597],9.13
19,TAATCGGTAATATTAACACACACATTTATATATATT [CACACA_site8274],9.81
20,AATATCTGTATATCCACACACATATATATATATATA [CACACA_site4987],9.65
21,ATTATTCATATAACACGTACAAAACGAAAAACAAAT [XGTACX_site3873],9.62
22,GTATTAATAAAAATACGTACTTATTATTTATAATAA [XGTACX_site7672],8.84
23,AAAAGGAGAAATATTGCACACGTGCAAAATGGTATG [CACACA_site4300],9.44

row,Sequence,gcPBM binding intensity (ln)
1,AATATCACCACATTGTTACTATAATATATAAAAAAG [XGTACX_negctrl_site384],9.22
2,ATTCATAAAAGTTGTACATGCAATTTTTTTTTTTTT [TGCATGCA_site270],9.08
3,ATTTTGTTATGAAACACACACATATATATATATATA [CACACA_site3650],9.53
4,ATATATGTAACATATTGTACATATATGTATGTATGT [XGTACX_site3281],9.33
5,ATGATAAAATTATGTAGTACATATTTGAATGTAAAT [XGTACX_site688],9.24
6,AAATTATGCATCGAGGTGCGTCTTAAAATATAGTGG,9.28
7,ATATAAATTCAAATTACACACATTTATTTTTTTTAC [CACACA_site53],9.44
8,CTACATAATAAAAAAAGTACATTCTAATAAATTGAC [XGTACX_site4504],9.35
9,ACTAATAATTTGTCGGTGCATAAAATTATTTTTATT [GTGCAC_site9840],9.31
10,TATATGCCTATAAGAAGTACTGTGTAATGTAATATA [XGTACX_site8089],9.26
11,TAAACATAAATATGCACACATATACATATATTCATA [CACACA_site2667],9.46
12,AAGAAAAATATATTTATATATATATATATTAAATAT [TGCATGCA_negctrl_site500],8.98
13,AATTTTATACGATAAACATGCAAATAAATAAATAAA [TGCATGCA_site227],9.18
14,AAAGAAAAAAAAAACACACACACACCCATTCAATAT [CACACA_site38],10.2
15,TATAATAATATTTATTGTACAATTAGTTTAATTCAT [XGTACX_site272],9.08
16,TTTATTATATAAACATGTACACAATTTGGTATATTC [XGTACX_site3112],9.21
17,ACAGCCAATACGGAAACACACAAGTTATTTTATCAT [CACACA_site5507],9.4
18,CATTCTTGTTTAAAAAGTACATAAACATATATATAT [XGTACX_site1751],9
19,AAAAAAAATAAAGAGAAAAAAAAAAGAAAATTATAT [GTGCAC_negctrl_site550],9.38
20,TAAATTAATATGTATCGTACAATATATAAAACGATG [XGTACX_site2818],9.27
21,TTCTTCTGTTTTATTACACACCATTTTGCGTATACA [CACACA_site2070],9.7
22,ACATATTATATAACTCGTACTCGTAAAATATGTTGT [XGTACX_site2240],9.37
23,GTCATAAATGTACGCACACATACATAAACATATACA [CACACA_site650],9.46

row,Sequence,gcPBM binding intensity (ln)
1,GTTCTTTTATATATTTGTACATATTTATATATATTG [XGTACX_site4078],9.72
2,ATATTATATATATAGGTGCGAGTATTTTATAAATAT [GTGCAC_site9889],9.38
3,TATACACCCGGACACACACACATATATATATATATA [CACACA_site5030],9.94
4,TAAGTATACACATACACACACACACTAATAAAAAAA [CACACA_site8035],10.1
5,TAAAAATATTAATAAACACACAATGAGATATTGAAT [CACACA_site3153],9.68
6,ATATATATATTATATGCACACGTTAAAATTTCATAT [CACACA_site4552],9.38
7,TGATATATTTATATTACACACTTAAACGAAAAAAAA [CACACA_site3021],9.29
8,TATTATAATATTTATACACACATAATTTTGATAAAT [CACACA_site583],9.31
9,AAATATAAAATTTATTGTACATTATATATAATATAT [XGTACX_site1416],9.14
10,AATATAAGTAGTACAGTGCATATAATAATTAGAAGA [GTGCAC_site9485],9.61
11,TTGATTTATATTTAATGTACATTTTTACAGAAAATT [XGTACX_site2747],8.93
12,CCATAAAAAGGATACACACACACACGCACATATATA [CACACA_site6550],10.2
13,GATTAAACACAAAGAAGTACGGACATAAAAAAAAAA [XGTACX_site3686],9.56
14,TCGTGGTTTTAATAAGTGCGCAATTTAAATATTTTT,9.38
15,TATTATTATTATTACACACACAATTATATTTACCCC [CACACA_site503],9.84
16,GTATATATATATATATATATATATTTTTATTTATTT [CACACA_negctrl_site589],8.96
17,GAAATGTGGTAATATACACACACGCATATATTTATA [CACACA_site6285],9.55
18,TTTGAACTCTTAAGTGGTACAAATTTGTATTTTCTC [XGTACX_site2322],9.13
19,AATGGAATATATATTTGTACATAAATATTATAATAA [XGTACX_site8524],9.23
20,TATAAATAAAAATATACACACTGTATTATTGTAATA [CACACA_site7721],9.34
21,TTTACTCCTACAACATGTACATAAAATAAATTTTTT [XGTACX_site5010],9.11
22,ACATGTTAACTAAATGTACACACCTATGTTGATGTA [CACACA_site1821],9.43
23,TTATTTACAACTTTTTTTTTTTTATTTTATTTTATT [CACACA_negctrl_site341],9.36

row,Sequence,gcPBM binding intensity (ln)
1,TGCATACTAGCCAATTGTACATAATTTTATTTTAAA [XGTACX_site513],9.06
2,ATTATGATTTTATAGAACTGAACATTTACATTAAAT [GTGCAC_negctrl_site192],9.09
3,AAAAGGAACAGACACACACACATATATATATATATA [CACACA_site3587],9.85
4,AAAATAAATCTGAATGGGGTATAATATATCTTTGTT [CACACA_negctrl_site744],9.31
5,ATAACAAAATAAAACACACACACAAATGTACTTATA [CACACA_site8768],9.93
6,ATTTATTATATATACACACATACATATATATATATA [CACACA_site2159],9.62
7,AAAAAATTCTGGTACTGTACACATTTTTTTAAATTT [XGTACX_site6904],9.28
8,TGCTTTTATTTCTTCACACATATGTAAAAAAAAGAA [CACACA_site5906],8.94
9,ATTATATTAGGTAATCAGTTAAATGTTTCCTTTTTA [CACACA_negctrl_site1229],9.2
10,GTTATACTCATATATACACACATATGTAAATATATA [CACACA_site5764],9.49
11,ATATAAATAATGTTGACACACACAATAATCTTATTA [CACACA_site9197],9.56
12,AAAATATGGATTCATGATATTAAATTTAATTTAATG [XGTACX_negctrl_site214],8.95
13,ATACGAAAAAAAAAAAGTACACAAAAATATCTACAT [XGTACX_site2051],9.57
14,TTTATATAATTTTGTGGTACTTATGTGTGTATATTA [XGTACX_site706],9.75
15,CGCGCACCCAGACACACACACACACCGATATATATA [CACACA_site8687],10.2
16,TAAATTATCTTTTTATGTACTTATTTTTATTATTTT [XGTACX_site3158],9.55
17,AAAAAAAAAAAAAGTACACACTTATAAAATATTATG [CACACA_site4639],9.4
18,TATTTTCAACATATTTGTACATATTTTATATTTTAA [XGTACX_site101],9.23
19,TATAATATAATTAAAAGTACTTAAAAAAGAATGAAA [XGTACX_site1157],9.25
20,TGTTTATATAATATTCTACACACCAACAACAAACAT [CACACA_site8087],9.74
